Values quoted from earlier work as cited in paper PMC6318274, “Lattice engineering enables definition of molecular features allowing for potent small-molecule inhibition of HIV-1 entry” (Nature Communications, 2019).

System: HIV-1 Env-pseudoviruses (208-strain panel)
Conditions: BG505.W6M.C2, clade A; cited from earlier work

## COc1cnc(-n2cnc(C)n2)c2[nH]cc(C(=O)C(=O)N3CCN(C(=O)c4ccccc4)CC3)c12 [BMS-626529]
  IC50: 9 nM
